Results: publication PMC9023467
Results are given in words; binding and its absence hold for the method and conditions named. For some assays here: In cells and extracts the contact can be indirect. Some binding calls cover weakened binding; strength is not graded here. For some assays here: Sequences can lack the tags named with a protein.

By UniProt entry, the sequences of proteins in these tests, tags left out. Where a name states a change or a piece, a line headed by the entry shows the natural chain unless it says otherwise. Residues count along the entry.
UniProt P37231, residues 29-505: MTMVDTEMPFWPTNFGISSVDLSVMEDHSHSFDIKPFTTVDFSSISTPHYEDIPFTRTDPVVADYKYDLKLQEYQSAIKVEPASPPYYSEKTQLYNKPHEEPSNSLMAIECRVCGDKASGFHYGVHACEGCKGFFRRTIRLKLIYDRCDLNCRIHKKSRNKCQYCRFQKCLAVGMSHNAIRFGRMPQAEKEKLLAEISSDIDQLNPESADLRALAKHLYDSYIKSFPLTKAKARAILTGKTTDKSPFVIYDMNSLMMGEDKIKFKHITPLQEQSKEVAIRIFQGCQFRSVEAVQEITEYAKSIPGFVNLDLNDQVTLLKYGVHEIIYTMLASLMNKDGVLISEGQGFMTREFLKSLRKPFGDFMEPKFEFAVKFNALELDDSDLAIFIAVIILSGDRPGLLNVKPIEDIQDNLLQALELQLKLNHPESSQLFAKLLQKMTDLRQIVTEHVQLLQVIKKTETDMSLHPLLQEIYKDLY
UniProt Q03181: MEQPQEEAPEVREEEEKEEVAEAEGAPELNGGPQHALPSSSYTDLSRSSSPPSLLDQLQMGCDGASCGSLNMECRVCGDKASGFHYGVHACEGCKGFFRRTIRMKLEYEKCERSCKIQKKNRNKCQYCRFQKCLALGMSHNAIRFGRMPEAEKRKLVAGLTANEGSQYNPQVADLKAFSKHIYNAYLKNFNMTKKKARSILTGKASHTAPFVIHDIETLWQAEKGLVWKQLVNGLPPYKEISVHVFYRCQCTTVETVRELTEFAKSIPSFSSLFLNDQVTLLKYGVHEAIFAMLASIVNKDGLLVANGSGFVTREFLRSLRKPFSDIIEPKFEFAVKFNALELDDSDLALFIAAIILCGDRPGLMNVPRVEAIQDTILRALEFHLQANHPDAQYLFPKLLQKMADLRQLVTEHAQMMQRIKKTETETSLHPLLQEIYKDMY

T1: Myc-USP22 (UniProt Q9UPT9)
T1 sequence: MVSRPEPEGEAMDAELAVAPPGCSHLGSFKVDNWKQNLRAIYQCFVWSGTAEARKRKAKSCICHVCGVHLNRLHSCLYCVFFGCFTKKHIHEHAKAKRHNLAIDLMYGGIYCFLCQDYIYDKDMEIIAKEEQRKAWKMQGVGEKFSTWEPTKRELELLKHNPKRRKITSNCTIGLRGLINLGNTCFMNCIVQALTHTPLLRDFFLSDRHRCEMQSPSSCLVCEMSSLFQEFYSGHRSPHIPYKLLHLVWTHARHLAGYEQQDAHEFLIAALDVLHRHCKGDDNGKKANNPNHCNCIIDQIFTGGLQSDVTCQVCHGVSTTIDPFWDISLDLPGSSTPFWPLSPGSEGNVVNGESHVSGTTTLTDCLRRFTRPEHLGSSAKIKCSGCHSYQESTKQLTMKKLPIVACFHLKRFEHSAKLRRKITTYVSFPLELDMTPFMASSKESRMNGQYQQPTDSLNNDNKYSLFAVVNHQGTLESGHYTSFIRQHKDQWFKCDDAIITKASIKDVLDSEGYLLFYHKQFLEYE

T2: ubiquitin-specific protease 22 (USP22), endogenous (human (endogenous in MHCC-97H, MHCC-97L, HUH7, HepG2, SNU449, Bel-7402)) (UniProt Q9UPT9)
T2 sequence: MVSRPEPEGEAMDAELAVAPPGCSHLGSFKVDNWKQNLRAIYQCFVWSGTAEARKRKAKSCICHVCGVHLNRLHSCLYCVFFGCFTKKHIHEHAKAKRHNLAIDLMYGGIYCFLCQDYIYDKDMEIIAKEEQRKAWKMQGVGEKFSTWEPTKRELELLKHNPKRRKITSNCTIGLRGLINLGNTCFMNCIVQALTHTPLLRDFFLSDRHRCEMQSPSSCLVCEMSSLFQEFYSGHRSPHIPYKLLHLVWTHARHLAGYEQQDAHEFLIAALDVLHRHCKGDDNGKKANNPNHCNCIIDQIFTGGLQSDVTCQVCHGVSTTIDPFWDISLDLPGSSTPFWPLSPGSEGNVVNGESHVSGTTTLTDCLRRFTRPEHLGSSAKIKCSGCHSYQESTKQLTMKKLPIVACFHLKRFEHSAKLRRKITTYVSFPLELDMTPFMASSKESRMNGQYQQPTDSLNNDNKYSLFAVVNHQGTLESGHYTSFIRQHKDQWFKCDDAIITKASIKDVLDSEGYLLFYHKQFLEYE


What was measured:
Myc-USP22 = molecular target: T1, Myc-USP22; assay: co-IP; HEK293T transfected for 24 h with Flag-PPARγ or Myc-USP22 alone or in combination; lysates immunoprecipitated with Flag and Myc antibodies, immunoblot with Myc or Flag antibodies
[1] = molecular target: T2, ubiquitin-specific protease 22 (USP22), endogenous (human (endogenous in MHCC-97H, MHCC-97L, HUH7, HepG2, SNU449, Bel-7402)); assay: co-IP; lysates of HCC cells (MHCC-97H; MHCC-97L, HUH7, HepG2, SNU-449, Bel-7402) immunoprecipitated with IgG or USP22 antibodies, immunoblot; E1A lysis buffer (250 mM NaCl, 50 mM HEPES pH 7.5, 0.1% NP-40, 5 mM EDTA)
[2] = molecular target: GST-tagged PPARγ (GST-PPARγ) (UniProt P37231); assay: pull-down; GST-PPARγ immobilised on GST-tag resin, incubated with purified His-USP22 at 4 °C for 4 h in 50 mM Tris-HCl, 200 mM NaCl, 1 mM EDTA, 1% NP-40, 1 mM DTT, pH 8.0; Western blot; both purified

Molecule | binding [1] | also measured
Flag-PPARγ (from UniProt P37231-2 1-477) |  | binding (Myc-USP22): binds
PPARδ, endogenous (from UniProt Q03181 1-441) | no binding | 
peroxisome proliferator-activated receptor gamma (PPARγ), endogenous (from UniProt P37231-2 1-477) | binds | 
6×His-tagged USP22 (His-USP22) (enzyme, UniProt Q9UPT9 1-525) MVSRPEPEGEAMDAELAVAPPGCSHLGSFKVDNWKQNLRAIYQCFVWSGTAEARKRKAKSCICHVCGVHLNRLHSCLYCVFFGCFTKKHIHEHAKAKRHNLAIDLMYGGIYCFLCQDYIYDKDMEIIAKEEQRKAWKMQGVGEKFSTWEPTKRELELLKHNPKRRKITSNCTIGLRGLINLGNTCFMNCIVQALTHTPLLRDFFLSDRHRCEMQSPSSCLVCEMSSLFQEFYSGHRSPHIPYKLLHLVWTHARHLAGYEQQDAHEFLIAALDVLHRHCKGDDNGKKANNPNHCNCIIDQIFTGGLQSDVTCQVCHGVSTTIDPFWDISLDLPGSSTPFWPLSPGSEGNVVNGESHVSGTTTLTDCLRRFTRPEHLGSSAKIKCSGCHSYQESTKQLTMKKLPIVACFHLKRFEHSAKLRRKITTYVSFPLELDMTPFMASSKESRMNGQYQQPTDSLNNDNKYSLFAVVNHQGTLESGHYTSFIRQHKDQWFKCDDAIITKASIKDVLDSEGYLLFYHKQFLEYE |  | binding [2]: binds
PPARα, endogenous (protein, UniProt Q07869 1-468) MVDTESPLCPLSPLEAGDLESPLSEEFLQEMGNIQEISQSIGEDSSGSFGFTEYQYLGSCPGSDGSVITDTLSPASSPSSVTYPVVPGSVDESPSGALNIECRICGDKASGYHYGVHACEGCKGFFRRTIRLKLVYDKCDRSCKIQKKNRNKCQYCRFHKCLSVGMSHNAIRFGRMPRSEKAKLKAEILTCEHDIEDSETADLKSLAKRIYEAYLKNFNMNKVKARVILSGKASNNPPFVIHDMETLCMAEKTLVAKLVANGIQNKEAEVRIFHCCQCTSVETVTELTEFAKAIPGFANLDLNDQVTLLKYGVYEAIFAMLSSVMNKDGMLVAYGNGFITREFLKSLRKPFCDIMEPKFDFAMKFNALELDDSDISLFVAAIICCGDRPGLLNVGHIEKMQEGIVHVLRLHLQSNHPDDIFLFPKLLQKMADLRQLVTEHAQLVQIIKKTESDAALHPLLQEIYRDMY | no binding | 
